Whole data set: some 33,000 sequences, median “E-score (-0.5 to 0.5)” near -0.043, cut for the highest 2% near 0.37. The list shows a part of the results.
The sequences below were run against T1, Upc2 (UniProt Q12151) (assay: PBM E-score (8-mer binding enrichment) (E-score (-0.5 to 0.5)); higher = stronger / more preferred TF binding; most listed sequences are background and not binding sites). Settings: protein concentration: 200 nM; construct: GST-full length.
T1 sequence: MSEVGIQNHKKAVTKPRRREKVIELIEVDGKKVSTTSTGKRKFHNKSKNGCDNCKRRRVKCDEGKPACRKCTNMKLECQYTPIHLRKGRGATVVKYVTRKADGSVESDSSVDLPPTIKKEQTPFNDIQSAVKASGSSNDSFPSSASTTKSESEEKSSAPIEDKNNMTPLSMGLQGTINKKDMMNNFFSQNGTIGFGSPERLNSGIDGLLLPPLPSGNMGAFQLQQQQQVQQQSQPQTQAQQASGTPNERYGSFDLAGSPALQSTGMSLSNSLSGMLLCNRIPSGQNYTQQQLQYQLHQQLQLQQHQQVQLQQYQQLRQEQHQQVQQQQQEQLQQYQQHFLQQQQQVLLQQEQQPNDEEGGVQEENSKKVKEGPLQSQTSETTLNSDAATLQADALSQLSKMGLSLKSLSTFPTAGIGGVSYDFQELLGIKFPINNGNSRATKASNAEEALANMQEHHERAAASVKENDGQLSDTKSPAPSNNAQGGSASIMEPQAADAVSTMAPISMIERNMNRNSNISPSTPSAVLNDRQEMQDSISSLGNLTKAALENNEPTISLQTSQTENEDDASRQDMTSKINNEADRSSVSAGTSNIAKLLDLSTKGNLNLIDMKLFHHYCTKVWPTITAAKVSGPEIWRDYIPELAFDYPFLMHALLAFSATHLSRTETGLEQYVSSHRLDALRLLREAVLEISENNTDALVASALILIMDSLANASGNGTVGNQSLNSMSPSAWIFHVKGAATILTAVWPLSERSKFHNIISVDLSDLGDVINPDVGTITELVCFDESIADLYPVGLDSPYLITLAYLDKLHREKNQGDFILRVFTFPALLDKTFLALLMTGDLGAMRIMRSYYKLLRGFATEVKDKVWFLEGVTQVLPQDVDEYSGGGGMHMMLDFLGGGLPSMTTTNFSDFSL
Outline: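 PURExpress in vitro transcription/translation supplied GST-tagged yeast transcription factors, either full-length or DNA-binding domain. Applied at about 100-200 nM to universal all-10-mer Agilent arrays double-stranded by primer extension, the bound protein was detected with fluorescent anti-GST. E-scores, modified Wilcoxon-Mann-Whitney statistics, were given by the Universal PBM Analysis Suite to ungapped eight-base words pooled with their reverse complements after masliner normalisation.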

Row | Sequence | PBM E-score
1 | AATAAGCT | -0.0583
2 | ACCACCAT | -0.0573
3 | CCCTTGCC | -0.128
4 | GATTTTGC | -0.0509
5 | GCGACACC | 0.0389
6 | ACCCCTTC | -0.246
7 | CATCGCCG | 0.009
8 | CCACCGGC | -0.154
9 | CGTCTTTA | 0.133
10 | ATCGGGTC | 0.0529
11 | CAGCACTC | 0.0219
12 | ATTCTTAA | 0.176
13 | CCGGGAAC | 0.175
14 | GCTATCCA | -0.0191
15 | GCGGCAAC | -0.114
16 | ACATGCGA | 0.128
17 | CGTTAGAG | 0.104
18 | ATGTGGTA | -0.0775
19 | GCGAGAGA | -0.11
20 | ACTGATCT | 0.0925
21 | GAGGACAC | -0.0694
22 | ACCTCCAC | -0.229

Row | Sequence | PBM E-score
23 | CCCTTTTA | -0.262
24 | GCCATACC | -0.035
25 | CGGACTAG | -0.202
26 | TCGTCAGA | -0.231
27 | AGGATAGG | -0.0689
28 | GAGTTATA | 0.039
29 | GGCGAGGA | -0.182
30 | CCGACTCC | -0.0901
31 | GGTAATCA | -0.163
32 | CTTGCGTC | -0.109
33 | TAAAAGGA | 0.0854
34 | GACGTGGA | -0.114
35 | AAGTAGCC | -0.268
36 | AGAGAGAC | -0.252
37 | GCGAATTA | 0.179
38 | GAGCTTGC | -0.231
39 | ACAATTGG | -0.118
40 | AACATTTC | -0.0609
41 | ACAGCGCA | -0.233
42 | ATCCGGCG | -0.0413
43 | ATACGGAT | 0.357
44 | AAATCCAT | 0.0546

Row | Sequence | PBM E-score
45 | AGCTACAG | -0.329
46 | ATGTGAAT | 0.12
47 | AGTTTACA | -0.0264
48 | AAAGAAGC | -0.0105
49 | CCTCCTTC | -0.183
50 | CCAAGCGC | -0.251
51 | ATTAGCAC | 0.0776
52 | GGACTGCC | -0.21
53 | GGACTATA | 0.00055
54 | AGGTACCG | 0.028
55 | CGAATTGC | 0.152
56 | TCGCGGAA | 0.00431
57 | GAATCTGC | -0.114
58 | CTACCCCC | -0.339
59 | GAGCCGCA | -0.0151
60 | CCGACCGA | 0.0988
61 | ATGATTTA | -0.0121
62 | ACACCGAC | 0.0418
63 | GGCAAATA | 0.0411
64 | CATCGGGA | -0.0687
65 | CAGGAGGG | -0.344
66 | GTCCCATA | 0.0108

Row | Sequence | PBM E-score
67 | CGGACACC | -0.11
68 | AGCGGAGC | 0.0226
69 | GGGCGTTA | 0.0857
70 | GTCCGACA | -0.016
71 | TAGTCTGA | -0.194
72 | CGGATCAA | -0.0565
73 | CCGCCGCA | 0.00226
74 | CTCTCATC | -0.078
75 | CCCGGATA | -0.00303
76 | CGTCCACA | -0.175
77 | GGCTCTAC | 0.0291
78 | TAAGACAA | 0.0602
79 | CATAATTA | -0.00138
80 | CTCCGAGC | 0.0315
81 | AAGATGTA | 0.0093
82 | ACGGGTTC | -0.0214
83 | ACCCTAAT | -0.14
84 | GACGGTGA | -0.112
85 | CGTAGAGC | 0.201
86 | CCATTCGA | -0.027

Source: the supplement of paper PMC3334620
